Results published in a compilation of properties of binary mixtures (doi:10.5541/ijot.303607).
The densities may have been worked out from excess volumes.

Experiment: xn = mol fraction of the nth substance listed
Details: 101 kPa

CC(O)C(=O)[O-].[NH3+]CCO (configuration not stated) + CCO
mass density [kg/m3]
Details	x2 = 0.0543	x2 = 0.1051	x2 = 0.206	x2 = 0.3151	x2 = 0.4144	x2 = 0.5122	x2 = 0.6116	x2 = 0.7232	x2 = 0.8109	x2 = 0.9528
288.15 K	–	1189.1	1167.8	1142.7	–	1083.6	1045.7	–	943.8	–
290.65 K	1195.6	1187.5	–	1141.1	1113.6	1081.9	1043.9	991.8	941.9	840.5
293.15 K	1194.1	1186	1164.6	1139.4	–	–	1042.2	990	940	838.4
295.65 K	1192.6	1184.4	1163	1137.8	1110.3	1078.5	1040.4	988.1	938.1	836.3
298.15 K	–	–	1161.4	1136.1	1108.7	–	1038.6	986.3	936.1	834.2
300.65 K	–	–	1161.4	1136.1	1108.7	1076.8	1038.6	986.3	936.1	834.2
303.15 K	1187.9	1179.7	–	–	1105.4	1073.4	1035.1	–	932.1	830
305.65 K	1186.3	1178.1	1156.6	1131.3	–	–	1033.3	980.7	930.2	827.9
308.15 K	–	1176.6	1155	1129.7	1102.1	1070	1031.5	978.8	928.4	825.8
310.65 K	1183.2	1175	1153.5	1128.1	1100.4	1068.2	1029.7	–	926.4	–
313.15 K	–	1173.4	1151.9	1126.5	1098.7	1066.5	1027.9	975	924.5	821.5
315.65 K	–	1171.9	1150.3	1124.9	1097.1	1064.8	1026.1	973.2	922.5	–
318.15 K	–	1170.4	1148.8	–	1095.4	1063.1	1024.3	971.3	920.5	817.1
320.65 K	1177.1	1168.9	1147.2	1121.6	–	1061.3	1022.5	–	918.5	814.8
323.15 K	1175.6	1167.3	1145.6	1120	1092.1	1059.6	1020.7	967.5	916.5	–

CC(O)C(=O)[O-].[NH3+]CCO (configuration not stated) + CO
mass density [kg/m3]
Details	x2 = 0.0675	x2 = 0.1469	x2 = 0.2586	x2 = 0.3811	x2 = 0.4275	x2 = 0.518	x2 = 0.6083	x2 = 0.7069	x2 = 0.7972	x2 = 0.8985
288.15 K	1199.2	–	1173.5	1150.1	1140.1	1117.8	1089.2	1050.6	–	920.9
290.65 K	1197.7	1187.5	1172	–	1138.5	1116.2	1087.5	1048.8	998.7	918.9
293.15 K	–	1185.9	1170.4	–	–	1114.5	1085.8	1046.9	996.8	916.8
295.65 K	1194.6	1184.4	–	1145.2	–	–	1084	–	994.9	–
298.15 K	1193.1	1182.8	1167.2	–	1133.7	1111.2	1082.3	–	992.9	–
300.65 K	1191.5	1181.2	1165.6	1142	1132.1	–	1080.5	1041.5	991	910.6
303.15 K	1190	1179.6	1164	1140.4	1130.5	–	–	1039.7	988.9	908.5
305.65 K	1188.4	1178.1	1162.4	1138.8	1128.8	1106.2	1077.1	1037.9	986.4	906.4
308.15 K	1186.9	1176.5	1160.9	1137.2	1127.2	1104.5	1075.3	–	985.2	904.3
310.65 K	1185.3	1174.9	1159.3	1135.6	1125.6	1102.8	1073.6	1034.2	983.4	902.2
313.15 K	1183.8	1173.4	–	1134	1123.9	1101.1	–	1032.4	–	–
315.65 K	1182.3	1171.9	1156.2	1132.4	–	1099.4	1070.1	1030.5	979.5	898
318.15 K	1180.8	–	1154.6	1130.7	1120.7	1097.7	1068.3	1028.6	–	895.8
320.65 K	1179.3	1168.9	1153	1129.1	1119	1096.1	1066.6	1026.8	975.6	893.5
323.15 K	–	1167.3	1151.5	1127.5	–	1094.4	1064.8	1024.9	973.5	890.6

CC(O)C(=O)[O-].[NH3+]CCO (configuration not stated) + O
mass density [kg/m3]
Details	x1 = 0.0088	x1 = 0.0135	x2 = 0.3197	x2 = 0.5253	x2 = 0.6892	x2 = 0.9027	x2 = 0.9293	x2 = 0.949	x2 = 0.9707
288.15 K	1015.4	–	–	1191.3	–	1109.2	1089.8	1071.5	1045.9
290.65 K	1014.9	1022.2	–	1189.7	1173	–	1088.7	1070.5	1045.1
293.15 K	1014.3	1021.5	1196.9	1188.2	1171.5	1106.7	1087.6	1069.6	–
295.65 K	1013.6	1020.8	1195.3	1186.7	1170	–	1086.4	1068.5	1043.4
298.15 K	1012.9	1020.1	1193.8	–	1168.5	1104.3	1085.3	1067.5	1042.5
300.65 K	1012.1	–	1192.3	1183.7	–	–	1084.1	–	1041.6
303.15 K	1011.3	1018.4	1190.7	1182.2	1165.5	–	1082.9	–	1040.6
305.65 K	1010.5	–	1189.2	1180.7	1164	–	1081.7	1064.2	1039.6
308.15 K	1009.6	1016.6	–	1179.2	1162.5	1099	1080.4	1063	1038.6
310.65 K	1008.6	–	1186.2	–	1160.9	–	1079.2	1061.8	1037.5
313.15 K	1007.6	–	1184.7	–	1159.4	1096.3	1077.9	1060.6	1036.4
315.65 K	1006.6	1013.5	1183.2	1174.6	–	1094.9	1076.6	1059.4	–
318.15 K	1005.5	1012.4	1181.6	–	1156.3	1093.5	–	1058.1	–
320.65 K	–	1011.3	1180.1	1171.5	1154.8	1092.1	–	–	1032.8
323.15 K	1003.2	1010.1	1178.6	–	–	1090.7	1072.5	1055.5	–
